Results on 19 molecules are retold here after PubChem BioAssay AID1259407 (Chemical Carcinogenesis Research Information System (CCRIS), 2018).

In this series the test system is CCRIS mutagenicity, Ames/micronucleus/aberration tests. As to the kind of experiment: CCRIS mutagenicity studies.
Setting [1] is: Test System: AMES SALMONELLA TYPHIMURIUM, Strain/Indicator: TA98, Metabolic Activation: NONE, Method: STANDARD PLATE.
[2] abbreviates: End Point: IN VITRO CHROMOSOMAL ABERRATIONS, Test System: CHL CELLS, Metabolic Activation: NONE.

Molecules are shown by their SMILES. Entries after “also recorded” stand apart in the source; their conditions may differ. Some entries of the source have several records that differ or are many. The other results are left out here. No rule for the calls is given here. The source may hold further records. The values listed for one entry differ for a reason that is not stated; they may come from other doses, times, organisms or constructs than stated. A tag in brackets gives the origin of a value. Letters count within one entry. Signs of the kind (2×) count equal records among those shown.

On to `COc1cc(-c2ccc(N=C=O)c(OC)c2)ccc1N=C=O`, for which the mutagenic call is “inactive; negative [0.3 to 1000 µg/plate] and active; positive [0.3 to 3333.3 µg/plate]” under setting [1]; “inactive; negative [0.3 to 3333.3 µg/plate] and active; positive [1 to 1000 µg/plate]” (Test System: AMES SALMONELLA TYPHIMURIUM, Strain/Indicator: TA100, Metabolic Activation: RAT, LIVER, S-9, AROCLOR 1254, Method: STANDARD PLATE); “inactive; negative [0.3 to 3333.3 µg/plate] and active; positive [1 to 1000 µg/plate]” (Test System: AMES SALMONELLA TYPHIMURIUM, Strain/Indicator: TA100, Metabolic Activation: RAT, LIVER, S-9, Method: STANDARD PLATE); “inactive; negative [1 to 1000 µg/plate] and active; positive [1 to 3333.3 µg/plate]” (Test System: AMES SALMONELLA TYPHIMURIUM, Strain/Indicator: TA1538, Metabolic Activation: NONE, Method: STANDARD PLATE). For `C#C[C@]1(O)CC[C@H]2[C@@H]3CCc4cc(O)ccc4[C@H]3CC[C@@]21C`, the mutagenic call (End Point: IN VIVO CHROMOSOMAL ABERRATIONS, Test System: BONE MARROW CELLS, Species: MOUSE, Strain/Sex: SWISS ALBINO, Route: ORAL (GAVAGE)) was “active; positive (2 higher doses) and inactive; negative”.

As for `Cc1cc2nc3c(=O)[nH]c(=O)nc-3n(C)c2cc1C`, the mutagenic call (Test System: AMES SALMONELLA TYPHIMURIUM, Strain/Indicator: TA102, Metabolic Activation: NONE, Method: PREINCUBATION) is “inactive; negative and active; positive”.

In the case of `O=[Si]=O`, under “Test System: RAT ALVEOLAR CELLS, IN VIVO, Strain/Indicator: F344, MALE/HPRT/6-THIOGUANINE, Metabolic Activation: NONE, Method: INHALATION”, the mutagenic call is “active; positive and inactive; negative”.

In the case of `Cc1c2ccccc2c(C)c2c1ccc1ccccc12`, the mutagenic call reads like this: under setting [1], “active; positive [study A] and inactive; negative [study B]”; (Test System: AMES SALMONELLA TYPHIMURIUM, Strain/Indicator: TA100, Metabolic Activation: NONE, Method: STANDARD PLATE) “active; positive [study A] and inactive; negative [study B]”.

As for `COc1cc(-c2ccc(N)c(OC)c2)ccc1N`, the mutagenic call reads like this: under setting [2], “active; positive (structural changes); also recorded: active; positive (structural changes); precipitation of test chemical observed above 0.6”; (Test System: AMES SALMONELLA TYPHIMURIUM, Strain/Indicator: TA1535, Metabolic Activation: HAMSTER, LIVER, S-9, AROCLOR 1254, Method: PREINCUBATION) “inactive; negative (2×) and active; positive”. For `O=[N+]([O-])c1ccc(Oc2c(Cl)cc(Cl)cc2Cl)cc1`, the mutagenic call by setting is: (Test System: AMES SALMONELLA TYPHIMURIUM, Strain/Indicator: YG1021, Metabolic Activation: NONE, Method: PREINCUBATION) “active; positive and inactive; negative”; (Test System: AMES SALMONELLA TYPHIMURIUM, Strain/Indicator: YG1026, Metabolic Activation: NONE, Method: PREINCUBATION) “active; positive and inactive; negative”.

Take `O=C(O)c1cc(O)c2c(c1)[C@H]([C@H]1c3cc(C(=O)O)cc(O)c3C(=O)c3c(O[C@@H]4O[C@H](CO)[C@@H](O)[C@H](O)[C@H]4O)cccc31)c1cccc(O[C@@H]3O[C@H](CO)[C@@H](O)[C@H](O)[C@H]3O)c1C2=O`: the mutagenic call under setting [1] was “inactive; negative [sample A] and active; positive [sample B]”; the mutagenic call (Test System: AMES SALMONELLA TYPHIMURIUM, Strain/Indicator: TA98, Metabolic Activation: RAT, LIVER, S-9, AROCLOR 1254, Method: STANDARD PLATE) is “inactive; negative [sample A] and active; positive [sample B]”. Consider `COP(N)(=O)SC` (stereo not drawn), for which, under “End Point: In vivo chromosomal aberrations, Test System: Bone marrow cells, Species: Rat, Strain/Sex: Wistar, Route: Oral”, the mutagenic call was “active; positive and active; positive (structural changes)”.

Take `CN(C)c1ccc(C(=C2C=CC(=[N+](C)C)C=C2)c2ccc(N(C)C)cc2)cc1`: the mutagenic call was “active; positive and inactive; negative” (Test System: AMES SALMONELLA TYPHIMURIUM, Strain/Indicator: TA97, Metabolic Activation: RAT, LIVER, S-9, AROCLOR 1254, Method: STANDARD PLATE); “inactive; negative and active; positive” (Test System: AMES SALMONELLA TYPHIMURIUM, Strain/Indicator: TA104, Metabolic Activation: RAT, LIVER, S-9, AROCLOR 1254, Method: STANDARD PLATE).

As for `CCOC(=O)N(CCCC(=O)c1cccnc1)N=O`, the mutagenic call runs as follows: (Test System: AMES SALMONELLA TYPHIMURIUM, Strain/Indicator: TA98, Metabolic Activation: NONE, Method: PREINCUBATION) “active; positive and inactive; negative”; (Test System: AMES SALMONELLA TYPHIMURIUM, Strain/Indicator: TA1535, Metabolic Activation: NONE, Method: PREINCUBATION) “active; positive and inactive; negative”. In the case of `Nc1cc([N+](=O)[O-])ccc1O`, the mutagenic call (Test System: AMES SALMONELLA TYPHIMURIUM, Strain/Indicator: TA100, Metabolic Activation: HAMSTER, LIVER, S-9, AROCLOR 1254 (10%), Method: PREINCUBATION) is “inactive; negative (2×) and active; positive”; the mutagenic call (Test System: AMES SALMONELLA TYPHIMURIUM, Strain/Indicator: TA100, Metabolic Activation: HAMSTER, LIVER, S-9, AROCLOR 1254, Method: PREINCUBATION) is “active; positive [33 to 1000 µg/plate] and inactive; negative [33 to 3333 µg/plate]”.

Regarding `O=NN1CCCC1`, the mutagenic call was “inactive; negative [study A] and active; positive [study B]” (Test System: AMES SALMONELLA TYPHIMURIUM, Strain/Indicator: TA100, Metabolic Activation: MOUSE, LIVER, S-9, Method: PREINCUBATION); “inactive; negative and active; positive” (Test System: AMES SALMONELLA TYPHIMURIUM, Strain/Indicator: TA1535, Metabolic Activation: RAT, LIVER, S-9, PYRAZOLE); “active; positive [study A] and inactive; negative [study B]” (Test System: AMES SALMONELLA TYPHIMURIUM, Strain/Indicator: TA1535, Metabolic Activation: RAT, LIVER, S-9, Method: STANDARD PLATE).

`COC1=C(N)C(=O)c2nc(-c3nc(C(=O)O)c(C)c(-c4ccc(OC)c(OC)c4O)c3N)ccc2C1=O`: the mutagenic call (End Point: IN VITRO CHROMOSOMAL ABERRATIONS, Test System: CHE CELLS, Metabolic Activation: NONE, Method: FISH) was “active; positive (structural changes) and active; positive (dicentrics, fragments)”. Regarding `Cc1ccc(S(=O)(=O)NN)cc1`, under setting [2], the mutagenic call is “inactive; negative; also recorded: inactive; negative; authors report equivocal results for structural changes at the highest”. With `CCCCCC[C@H]1C(=O)O[C@H](C)[C@H](NC(=O)c2cccc(NC=O)c2O)C(=O)O[C@@H](C)[C@@H]1OC(=O)CC(C)C`, under “End Point: In vitro chromosomal aberrations, Test System: Chinese hamster ovary (CHO-WBL) cells, Metabolic Activation: None”, the mutagenic call is “inactive; negative (2×) and active; positive (polyploidy)”. Consider `O`, for which the mutagenic call (Test System: AMES SALMONELLA TYPHIMURIUM, Strain/Indicator: TA102, Metabolic Activation: RAT, LIVER, S-9, SODIUM PHENOBARBITAL AND 5,6-BENZOFLAVONE, Method: PREINCUBATION) is “inactive; negative and active; positive”.

Turning to `O=NN(CCO)CCO`, the mutagenic call runs as follows: (Test System: AMES SALMONELLA TYPHIMURIUM, Strain/Indicator: TA100, Metabolic Activation: HAMSTER, LIVER, S-9, POLYCHLORINATED BIPHENYLS, Method: PREINCUBATION) “active; positive and inactive; negative”; (Test System: AMES SALMONELLA TYPHIMURIUM, Strain/Indicator: TA100, Metabolic Activation: NONE, Method: PREINCUBATION) “inactive; negative (2×) [study A] and active; positive [study B]”; (Test System: AMES SALMONELLA TYPHIMURIUM, Strain/Indicator: TA100, Metabolic Activation: RAT, LIVER, S-9, POLYCHLORINATED BIPHENYLS, Method: PREINCUBATION) “active; positive and inactive; negative”. With `C=CCOC(=O)c1ccccc1C(=O)OCC=C`, the mutagenic call (End Point: IN VITRO CHROMOSOMAL ABERRATIONS, Test System: CHO CELLS, Metabolic Activation: NONE) was “inactive; negative; also recorded: inactive; negative; oily suspension at 500 ug/ml (2×)”.
